From the supplement of paper PMC10126150
Sequences with one replicate were seen in a single cluster, so their values are uncertain.

Test system: ATP
Assay: switch fluorescence ratio, 500 uM ATP over buffer (Cy3 cluster intensity, sum of 5 cycles each) (fold (ratio)); higher = stronger signal-on switching upon ATP binding; sequences stand for … in TCGTCGGCAGCGTCAGATGTGTATAAGAGACAGTTTTTTTTTTTTTTTTTTTTTTTTT…TC
Conditions: aptamer strand: ATP DNA aptamer (quencher-CACCTGGGGGAGTATTGCGGAGGAAGG + anchor), 100 nM annealed; ATP concentration: 500 uM; one replicate
Procedure, shortened: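 Switching-strand clusters labelled with Cy3 on a modified Illumina MiSeq flow-cell were annealed to 100 nM quencher-labelled ATP aptamer, imaged in selection buffer, and re-imaged after 15 min with 500 uM ATP at 22 °C. This was done over five cycles with NaOH stripping and re-annealing in between. The fluorescence ratio is summed target-cycle over summed buffer-cycle Cy3 intensity per cluster, averaged per switch-domain sequence, excluding clusters outside 100-1000 RFU.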
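Note: ATP exposure 15 min at 22 °C before imaging.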

Sequence	switch fluorescence ratio
TCAAGAAACT	1.02
AGGGGTCGCA	1.02
GCTGCATACT	2.19
AAAATGACGA	1.01
CACAAGTTAA	0.971
ATAATTTCCG	1.01
GTTGGATACG	1.01
TAGGGCTTA	0.961
TCCACTGCC	1.42
CATATGGCAA	1.5
GACGATCAGG	1.03
ACCGTCAATG	1.1
TATTAGAATG	0.998
AGATAACTGG	1.05
AACCGCCAAT	2.54
CTTGAGAGTG	1.03
CACAGCGGTC	1.36
GTTGAGTTTC	1.03
GTAATCACAG	1.06
GGGAGAATCC	1.04
CGTCTGAGGT	1.02
GTCTTTATCC	1.01
TGATAGAGGG	0.937

Sequence	switch fluorescence ratio
TTGGTGAGGA	0.973
GCCGGCTTGG	0.963
CCCGGGAACC	0.992
TAGTTATGCT	0.986
CTTTCCTGAG	1.09
GCAAGGGATA	1.03
TGCTGTGTGT	0.984
GAACCTAAAA	0.97
TGATGATTAG	0.942
AGACGGCTGT	1
GTATGGGCGA	1.02
CTGGTCGCAC	1.06
GATGGTGAAG	0.968
ACTATAGGCA	1.03
GTAATACTAA	1.1
CCCGGTCCAT	1.04
TCCTGGCTGA	1.07
CGGAAGGTAA	1.28
CTCTTAGCAA	2.49
ATAGGGGCT	0.995
AGACAGCATC	1.11
GCGGACTTT	0.939
CTAAGCGCGG	0.988

Sequence	switch fluorescence ratio
GTCGGATTAA	0.981
GTTAGATCAC	0.945
CATGTGACGA	1.01
ATTTCCATGA	0.967
CAATCGGGGT	0.992
GGGTAAACCG	1.04
GAATTCAAAA	0.989
ATGAGATAAA	0.988
TAGACCATGC	1.1
CAGTTTCGAA	1.02
TTTTACATGT	1.01
GGTGGATATT	1
ATGACTAT	0.947
ATGCGTGTGG	0.999
AGACTATACG	1.07
TCTTGTATA	0.977
GTGTCTGCCA	1.05
ACTGGAAT	0.978
TAGCCTTAAC	1.06
AAGGGTTGAC	1.06
GGATATTCGG	1
TTCGTGCAAA	0.995
CTGAGCATCA	1.16

Sequence	switch fluorescence ratio
AAGTTCCGCG	1.12
AAGGGCGCCT	0.992
CCCCATACTT	1.27
CTGAATACAG	1.01
ATTACCGTGC	1.1
CTGCCAGCTA	1.29
GTGCCAGGGC	0.915
ACCTGGAAAG	0.992
GAGGGACCTA	0.992
TCTATGGGGA	1.02
GTATGTATGT	0.919
ACGGTGGTTT	0.988
GGGTCATTAT	1.01
ATGCTGGACC	0.977
GATGTGGACG	1
TGCGCATCCC	1.2
ATAATTTTTC	0.988
TACGTCATGG	1.16
TCATCTGGGC	1.06
AAGGAGTC	0.98
CGTATAGGTT	0.965
ACCCTTAAAT	1.03
TACTCAGAA	1.02

Sequence	switch fluorescence ratio
GCGTAGGTAT	1.01
GTTTCTAATA	0.986
ACTGGGAAGA	0.997
GGTTCGTACC	0.979
TCAACGATG	1.01
TCCCAGAGGG	1.1
GCAATAAAGT	0.99
AACATGGGAG	1.01
ACGGAGTTTC	1.13
ATGAGGCTG	0.97
GAGCTGGCTC	1.03
CAGAAAGAGG	1.03
GCCTTGGCGA	0.999
GATCAGCAGG	1.02
GTGATGATTG	1.02
TGGTACAGAC	1.28
AGAAATTCCT	1.09
CTGTGACGGT	0.961
TTCTTCACAG	0.985
ACCGACAGGT	1.03
AGCCCCTCGC	1.03
GTCAAGTACG	1.24
GCCTGCGCCC	1.3

Sequence	switch fluorescence ratio
CACGCGCACT	1.67
TAGATGACGT	1.02
TGTCAAGTCC	1.04
TAATGCATAA	1.02
TGTCTATTTG	1.01
GCCAAAACAA	0.99
GTCATAAGTA	1.01
AGTGGCCTG	1.02
AGCGTCTTCC	1.13
GAAATTCACG	1.02
TGGGTCTTC	0.977
GTCATGATTG	0.933
TACAAAATAC	1.65
AGAGGATACG	1.05
ACTTTCAATC	1.07
GACATATCGT	1.06
CCCCAGACCG	1.17
CGTATCGGCA	1.05
GTGGGCGCGT	1
GGACCTTGCC	1.8
TGGGTGTTTC	1.01
TCTTGCGAGC	0.977
TGGCCCCCAT	1.11

Sequence	switch fluorescence ratio
ATAGCGGATG	1
GAGATAATGG	1.02
GCCGATCCGG	1.04
GCAATTAAGA	1.07
CTGCGCGATG	1.4
TGCGTATGAC	0.981
GCAATCGTAC	2.14
GTTTGCAATT	1.04
TACAACGAGA	1.03
TATAAGCCGG	1.07
TAGCGTGAGG	0.988
TTGACGTTCT	1.04
GGCCGCATTG	1.66
TACTAGGTAA	1.01
CGCCGCCGAG	1.35
GGGATCGTTC	1.05
ACAATTCAAT	0.971
TCGCTGGTTC	1.06
GCGCAGTCTA	1.03
